Measured values as given in the supplement of paper PMC4166925.
± gives the standard deviation of the averaged measurements. The full ranking holds about 33,000 sequences; the median of “E-score (dimensionless, -0.5 to 0.5)” is about -0.046, and the highest 2% start at about 0.36. Some of the results follow.

test system: T1, SpTbr T-box DNA-binding domain (GST fusion); assay: PBM E-score of 8-mer (E-score (dimensionless, -0.5 to 0.5)); Tbr is Tbrain of the sea star Patiria miniata (Pm) or the sea urchin Strongylocentrotus purpuratus (Sp); higher = stronger binding preference; most listed sequences are background and not binding sites; settings: the construct has about 5 more residues each side
T1 sequence: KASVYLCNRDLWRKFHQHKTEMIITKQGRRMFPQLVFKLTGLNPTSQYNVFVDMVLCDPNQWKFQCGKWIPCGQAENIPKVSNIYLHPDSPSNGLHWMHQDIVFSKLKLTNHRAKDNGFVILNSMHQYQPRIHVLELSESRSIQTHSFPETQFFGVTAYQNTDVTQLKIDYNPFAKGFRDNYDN
Protocol: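 Universal protein-binding microarray (Agilent AMADID 016060, 60-bp probes with a 35-bp variable region) incubated with 200 nM GST-fused Strongylocentrotus purpuratus Tbr T-box DNA-binding domain (residues 362-554) in PBS pH 7.5. Scored for every ungapped 8-mer (given with its reverse complement) as E-score (range -0.5 to 0.5; >0.45 counts as bound) and Z-score of median probe intensity. Two replicate arrays (datasets 1 and 2).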
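Note: protein at 200 nM in PBS on universal double-stranded arrays.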

Sequence | PBM E-score of 8-mer
GATGAACC | -0.244 ± 0.055
ATAGTCCG | -0.0403 ± 0.065
GATGGGCC | -0.188 ± 0.024
AGTCATAG | 0.0432 ± 0.023
TAAGAGAA | -0.241 ± 0.094
TGAACACA | 0.136 ± 0.051
GATGGCTA | -0.127 ± 0.081
CTTTCGAA | 0.0618 ± 0.015
ATAGGTAC | -0.178 ± 0.079
AGACCATG | -0.0594 ± 0.025
ACCTAGGG | 0.162 ± 0.088
GTTAGAGA | 0.0842 ± 0.098
AATTCCCA | -0.14 ± 0.032
CTCTACTC | -0.0577 ± 0.076
AAACTAGA | -0.184 ± 0.12
AGAACTTA | -0.0369 ± 0.0036
CTGCTAAA | 0.0425 ± 0.15
GCGGGACA | -0.0855 ± 0.043
AGTTACAT | -0.00121 ± 0.052
CGTGGCGC | 0.194 ± 0.074
AAACGTAA | -0.133 ± 0.015
ATATCACA | 0.307 ± 0.028
AGATGGTA | -0.0279 ± 0.063
CACGGGTA | 0.0283 ± 0.014
CAAGGGAC | 0.0013 ± 0.045

Sequence | PBM E-score of 8-mer
AGCGTCTG | -0.143 ± 0.055
ACCCTTAG | 0.0897 ± 0.025
TATTCAGA | -0.282 ± 0.053
ATCGTTCC | -0.0546 ± 0.0048
CAGTAAGG | -0.0533 ± 0.03
CTTAGCGC | 0.265 ± 0.047
AAACGAAT | 0.0397 ± 0.069
AGAACGAC | -0.0201 ± 0.022
ACCGTGCT | 0.0507 ± 0.043
GGACCGCC | -0.155 ± 0.033
CGCTCGAC | -0.0351 ± 0.11
TCGGATCA | -0.03 ± 0.008
CTCCTGAC | 0.0548 ± 0.024
CAGGTATG | 0.0341 ± 0.0037
AGTATTGG | -0.1127 ± 0.00064
AAAAAGCA | 0.12 ± 0.011
GAGTTCAC | 0.256 ± 0.053
TACCAATA | -0.0646 ± 0.057
AAAGGATG | -0.214 ± 0.059
AAAGTCAC | 0.119 ± 0.0087
CCACATAG | -0.0313 ± 0.00086
TCACTACA | 0.173 ± 0.016
CCCCCTAA | -0.263 ± 0.03
GAGTCGGA | -0.276 ± 0.085
GGTGCAAC | 0.176 ± 0.012

Sequence | PBM E-score of 8-mer
AGGACGCG | -0.054 ± 0.079
CACGACCG | -0.0494 ± 0.098
AGCTCGCG | 0.271 ± 0.033
ACGCCGAG | 0.0691 ± 0.026
AAAAGACG | -0.172 ± 0.028
ACAAGTTA | 0.0857 ± 0.15
ACGTCTGC | -0.129 ± 0.03
CAGTAGAG | 0.0207 ± 0.018
CTGGCAAG | -0.233 ± 0.014
AGCTTATG | -0.273 ± 0.061
ATTATCTC | 0.0263 ± 0.041
CGGTTCGA | -0.0657 ± 0.06
AGAGCCGG | -0.263 ± 0.065
TAAGGAAA | -0.136 ± 0.076
ATTGTTAC | 0.22 ± 0.017
GGCTGGTA | -0.171 ± 0.037
CCATCGGG | -0.0648 ± 0.033
AGGTGCAG | 0.287 ± 0.055
AGTTGTGC | 0.0504 ± 0.0086
CCGATTCC | -0.307 ± 0.012
ATACTGGC | -0.201 ± 0.025
GAATTCTC | 0.0707 ± 0.0016
AGAGCCCA | -0.2081 ± 0.0017
GATCCACC | -0.0245 ± 0.0077
AACGTGGT | 0.0744 ± 0.038

Sequence | PBM E-score of 8-mer
GAAAGCCC | -0.283 ± 0.0092
ATGAAGAA | -0.0743 ± 0.087
GCTCATAC | -0.0299 ± 0.01
AGTCTATG | -0.251 ± 0.014
ATCAAGCA | -0.0419 ± 0.014
TATGACGA | -0.0832 ± 0.054
CTGCGGTC | -0.0469 ± 0.00098
CCAGTATA | -0.13 ± 0.036
CCTTAAAA | -0.12 ± 0.064
ATCCATAG | -0.212 ± 0.02
GCGCGGAC | 0.242 ± 0.046
GTAATTTA | -0.0191 ± 0.074
CCCTGGTC | -0.0321 ± 0.028
CCCAATGC | -0.275 ± 0.026
ACCTGAAT | 0.0642 ± 0.047
ACCAAAGG | -0.248 ± 0.024
CGTTTTAA | -0.00155 ± 0.11
CTAGATTC | -0.0153 ± 0.052
CTAACTCA | -0.00571 ± 0.045
ATCGAACA | -0.0848 ± 0.006
CGGATGGC | -0.0926 ± 0.0036
ACATTTTA | 0.0151 ± 0.0042
GCGTTCGA | 0.0517 ± 0.025
ATTCGGGC | -0.0997 ± 0.061
CTACTCAC | 0.192 ± 0.02

Sequence | PBM E-score of 8-mer
ACTCCACA | 0.218 ± 0.034
AACGGTTG | 0.152 ± 0.027
AGACGGAA | -0.0561 ± 0.057
ACGAATTA | -0.109 ± 0.043
TCCCTAAA | -0.115 ± 0.054
GAGTATAA | -0.0577 ± 0.057
AAAGTGAA | -0.017 ± 0.029
AAGTGACT | 0.0603 ± 0.012
CCTGGTGA | 0.0525 ± 0.11
CAATCTCC | 0.016 ± 0.1
AACCCGAC | 0.164 ± 0.046
GCCAGAGC | -0.321 ± 0.034
AGCCCAAA | -0.319 ± 0.0085
GGCGCAAA | 0.252 ± 0.016
CCCGCCAA | 0.103 ± 0.024
CGGGCGGC | -0.0823 ± 0.034
ACAGCAGT | -0.0239 ± 0.063
AAACTCAA | -0.00724 ± 0.011
CGAAGCGA | 0.112 ± 0.051
ATGTTTCC | -0.109 ± 0.048
CGTGGGTC | 0.0464 ± 0.031
AGAGGGAC | -0.00168 ± 0.0061
CAGTCAGC | -0.137 ± 0.051
CTTCAAAA | -0.1056 ± 0.00038
AAAATGGA | -0.119 ± 0.091

Sequence | PBM E-score of 8-mer
ACTCAATA | 0.0176 ± 0.0082
GAATCGAA | 0.0339 ± 0.045
CATGTACG | 0.0634 ± 0.009
GCTTTATA | -0.0384 ± 0.072
GCAATAAC | -0.0468 ± 0.054
GACCGACA | 0.0969 ± 0.039
ATAGTATA | -0.0295 ± 0.11
AATAGGAC | -0.367 ± 0.014
AATCGTAC | -0.101 ± 0.12
CAGCGTTC | 0.0186 ± 0.085
AATGTATA | -0.211 ± 0.0044
GCATGGAA | -0.242 ± 0.016
ACGTGACA | 0.3127 ± 0.0018
ACTGGACA | -0.138 ± 0.026
GACCGAGC | -0.107 ± 0.042
ACTACTCT | -0.225 ± 0.021
ACACCGAA | 0.213 ± 0.0062
AGCGTCTA | 0.0653 ± 0.039
GTCCGTCA | 0.109 ± 0.0058
AGAAACCT | -0.164 ± 0.0043
AGCAGCAC | 0.145 ± 0.013
TACAACTA | -0.178 ± 0.17
ATGAAACA | -0.118 ± 0.0024
AGGGGTCG | -0.0173 ± 0.0068
CTGCTGAA | -0.114 ± 0.03

Sequence | PBM E-score of 8-mer
CTGTCGTC | 0.125 ± 0.045
GACCAGCC | -0.0974 ± 0.05
AACACTAT | 0.316 ± 0.049
AGTGTCAC | 0.43943 ± 0.00026
CCGTGCAA | -0.0607 ± 0.027
AGAGTAAG | 0.0445 ± 0.054
GGATGACC | 0.103 ± 0.0083
AAGGCACT | -0.132 ± 0.022
TGAGACAA | 0.1313 ± 0.0002
ATGCGGTG | -0.234 ± 0.046
GAACCATA | -0.137 ± 0.015
CCTTGAAA | -0.0919 ± 0.011
ATAAGCAA | -0.0776 ± 0.036
TGAGTACA | 0.0977 ± 0.0054
CCCTATGA | -0.08 ± 0.038
CCATTGCG | -0.193 ± 0.085
CTCATTAA | -0.0585 ± 0.042
TCATTGGA | -0.0638 ± 0.031
TGATGAAA | 0.136 ± 0.069
GCAGGAAA | 0.0033 ± 0.0078
CCGGTAGC | 0.0568 ± 0.039
CTCAGTTA | -0.0462 ± 0.038
